Measurements published in the supplement of paper PMC4967469.

What was measured:
Test in all cases: Viability of human cancer cell lines after 72 h of drug (GDSC screen)
AR-42 = compound: CC(C)[C@H](C(=O)Nc1ccc(C(=O)NO)cc1)c1ccccc1 [AR-42]; details: top dose 5.12 µM; top dose inferred
Method: (§1)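 Human cancer cell lines in 384-well plates, medium with 10% serum, drug for 72 h over a 256-fold dose range (nine 2-fold or five 4-fold steps up to the top dose). Adherent lines were fixed and stained with the nucleic acid dye Syto60, suspension lines read with resazurin; signal relative to control wells, capped at 0 and 100%. One two-parameter sigmoid per drug and line, fitted in a mixed model over all curves with the slope shared within a line.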

CEP-701 = compound: C[C@]12O[C@H](C[C@]1(O)CO)n1c3ccccc3c3c4c(c5c6ccccc6n2c5c31)CNC4=O [CEP-701]; details: top dose 2 µM; top dose inferred
Method: as §1

SB 216763 = compound: Cn1cc(C2=C(c3ccc(Cl)cc3Cl)C(=O)NC2=O)c2ccccc21 [SB 216763]; details: top dose 10 µM; top dose inferred
Method: as §1

GDC0941 = compound: CS(=O)(=O)N1CCN(Cc2cc3nc(-c4cccc5[nH]ncc45)nc(N4CCOCC4)c3s2)CC1 [GDC0941]; details: top dose 4 µM; screen: GDSC drug entry 1527; top dose inferred
Method: as §1

Cell Line | AUC (AR-42) | IC50 (AR-42) [nM] | AUC (CEP-701) | IC50 (CEP-701) [nM] | AUC (SB 216763) | IC50 (SB 216763) [nM] | AUC (GDC0941) | IC50 (GDC0941) [nM]
UWB1.289 (ovary, adherent) | 0.641 | 957 | 0.833 | > 2000 | 0.969 | > 10000 | 0.795 | 3030
OACp4C (oesophagus, adherent) | 0.298 | 76 | 0.641 | 334 | 0.982 | > 10000 | 0.733 | 1340
JHOS-3 (ovary, adherent) | 0.902 | > 5120 | 0.918 | > 2000 | 0.981 | > 10000 | 0.76 | 1780
JHOS-2 (ovary, adherent) | 0.675 | 1070 | 0.615 | 273 | 0.966 | > 10000 | 0.568 | 397
MDA-MB-231 (breast, adherent) | 0.593 | 584 | 0.731 | 594 | 0.946 | > 10000 |  | 
SNU-61 (large intestine, adherent) | 0.347 | 105 | 0.91 | > 2000 | 0.985 | > 10000 | 0.947 | > 4000
ESO26 (oesophagus, adherent) | 0.46 | 251 | 0.704 | 452 | 0.985 | > 10000 | 0.808 | 1930
RCC-JW (kidney, adherent) | 0.617 | 676 | 0.632 | 291 | 0.985 | > 10000 | 0.625 | 559
QGP-1 (pancreas, adherent) | 0.483 | 281 | 0.917 | > 2000 | 0.962 | > 10000 | 0.941 | > 4000
HT-29 (large intestine, adherent) | 0.493 | 305 | 0.703 | 465 | 0.981 | > 10000 |  | 
COR-L321 (lung, suspension) | 0.214 | 46.6 | 0.762 | 714 | 0.969 | > 10000 | 0.962 | > 4000
OV-56 (ovary, adherent) | 0.627 | 705 | 0.792 | 868 | 0.985 | > 10000 | 0.906 | > 4000
OACM5-1 (oesophagus, semi-adherent) | 0.517 | 359 | 0.984 | > 2000 | 0.982 | > 10000 | 0.868 | > 4000
OVCA433 (ovary, adherent) | 0.711 | 1360 | 0.616 | 270 | 0.985 | > 10000 | 0.717 | 1110
ESO51 (oesophagus, semi-adherent) | 0.53 | 399 | 0.745 | 862 | 0.977 | > 10000 | 0.941 | > 4000
IGR-37 (melanoma, adherent) | 0.474 | 274 | 0.266 | 28.9 | 0.989 | > 10000 |  | 
KMS-11 (myeloma, suspension) | 0.321 | 110 | 0.744 | 550 | 0.989 | > 10000 |  | 
D-566MG (glioma, adherent) | 0.571 | 499 | 0.448 | 90.1 | 0.909 | > 10000 |  | 
SNU-387 (liver, adherent) | 0.476 | 273 | 0.632 | 305 | 0.976 | > 10000 |  | 
BALL-1 (B-cell leukaemia, suspension) |  |  | 0.626 | 252 | 0.997 | > 10000 | 0.983 | > 4000
MHH-CALL-2 (B-cell leukaemia, suspension) |  |  | 0.725 | 442 | 0.996 | > 10000 | 0.997 | > 4000
MKN7 (stomach, adherent) |  |  | 0.798 | 1360 | 0.928 | > 10000 | 0.821 | 3460
VMRC-LCD (lung adenocarcinoma, adherent) |  |  | 0.541 | 159 | 0.992 | > 10000 | 0.966 | > 4000
MEL-HO (melanoma, adherent) |  |  | 0.535 | 156 | 0.986 | > 10000 | 0.765 | 1480
NCI-H146 (small cell lung carcinoma, suspension) |  |  | 0.958 | > 2000 | 0.995 | > 10000 | 0.991 | > 4000
MOLT-16 (T-cell lymphoblastic leukaemia, suspension) |  |  | 0.269 | 32.5 | 0.992 | > 10000 | 0.796 | 1460
CRO-AP2 (B-cell lymphoma, suspension) |  |  | 0.48 | 111 | 0.99 | > 10000 | 0.888 | 3470
NCI-N87 (stomach, adherent) |  |  | 0.891 | > 2000 | 0.931 | > 10000 | 0.587 | 482
NCI-H1341 (small cell lung carcinoma, suspension) |  |  | 0.666 | 334 | 0.962 | > 10000 | 0.524 | 287

The IC50 comes from the fitted curve, where viability falls to half of the control; fits outside the tested doses are given as limits. AUC sums up the same curve from the lowest dose to the 256-fold higher top dose; values near 1 show little effect. An inferred top dose was derived from the fitted curves, not read from the paper. For some assays here: An entry number marks a drug with two screens in the source, which often give different values.
